# Measured values published in PubChem BioAssay AID485364 (National Center for Advancing Translational Sciences (NCATS), 2010).
# The campaign covered roughly 360,000 compounds. About 11,000 (3.1%) were called active. The inconclusive results got no clear call from the source; some entries with a clear call stand among them for comparison. Calls come from the whole dose curve; as a rule, active = well fitted inhibition curve with a large enough effect; inconclusive = small, poorly fitted or top-dose-only effect; inactive = no such curve, though single readings can be large or run the other way. No potency is given beside an inconclusive call; the fits are too rough.
# Target: Schistosoma mansoni thioredoxin glutathione reductase (TGR) (UniProt Q962Y6)
# Assay: qHTS Assay for the Inhibitors of Schistosoma Mansoni Peroxiredoxins; note: nearly all actives have a fitted effect of over 60% in size
# Settings: purified TGR, DTNB reduction, TNB absorbance 405 nm; series mostly up to 114 µM
# How it was run: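 Kinetic colorimetric format: TGR-catalysed, NADPH-driven DTNB reduction monitored via TNB absorbance. Enzyme dispensed at 20 nM; compound exposure 15 min at room temperature before reaction start.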
# Potency is the fitted concentration of half-maximal effect; tags give direction and shape of the fitted curve.
row,SMILES,Potency
1,O=C(Nc1cccnc1)c1ccc([N+](=O)[O-])o1,"inconclusive [inhibitor, full curve]"
2,C/C(=N\NC(=S)Nc1cccc(C)c1)c1ccco1,"inconclusive [inhibitor, partial curve]"
3,CCOc1ccc(S(=O)(=O)NCc2ccccn2)cc1NC(=O)c1ccccc1F,inactive
4,O=C(Nc1ccc(OCc2cc(=O)n3c4c(sc3n2)CCCC4)cc1)c1ccc(F)cc1,inactive
5,COc1cc(C2/C(=C(\O)c3ccc4c(c3)OCCO4)C(=O)C(=O)N2Cc2ccco2)cc(OC)c1OC (stereo unspecified),"inconclusive [inhibitor, partial curve]"
6,COC(=O)C1=C(C(=O)OC)C(c2cc(Br)ccc2O)c2sc(=O)[nH]c2S1 (stereo unspecified),"inconclusive [inhibitor, partial curve]"
7,Cc1ccc(C2=NN(C(=O)CN3CCN(C4CCS(=O)(=O)C4)CC3)C(c3ccco3)C2)cc1 (stereo unspecified),"inconclusive [inhibitor, partial curve]"
8,COc1cccc(C(=O)NC(=S)Nc2ccc3[nH]c(=O)[nH]c3c2)c1,"inconclusive [inhibitor, full curve]"
9,CCOc1ccccc1N(CC(=O)Nc1cccnc1)S(C)(=O)=O,"inconclusive [inhibitor, partial curve, poor fit]"
10,COc1ccc(OC)c(NS(=O)(=O)c2ccc(SC)cc2)c1,"inconclusive [inhibitor, partial curve]"
11,COc1ccc(-c2nsc(SCC(=O)Nc3cc(C)on3)n2)cc1,"inconclusive [inhibitor, partial curve]"
12,COC(=O)c1cccc(C(=O)N2CCC(CCC(=O)NCc3ccc(F)cc3)CC2)c1,"inconclusive [inhibitor, single point]"
13,NC(=O)C1CCN(C2=C(NS(=O)(=O)c3ccccc3)C(=O)c3ccccc3C2=O)CC1,inactive
14,CCO[C@H]1OC(C(=O)N2CCN(Cc3ccccc3)CC2)=C[C@@H](c2cn(C(C)=O)c3ccccc23)[C@@H]1CCCO,"inconclusive [inhibitor, partial curve]"
15,CSc1cccc(NC(=S)NCCCO)c1,"inconclusive [inhibitor, full curve]"
16,Cc1ccc(C)n1NC(=O)c1ccco1,"inconclusive [inhibitor, partial curve]"
17,O=C(Cn1ncc(Cl)c(Cl)c1=O)c1ccc(Cl)cc1,"inconclusive [inhibitor, full curve]"
18,Cc1ccc(S(=O)(=O)N(C)c2ccc(OCC(=O)Nc3nc4ccccc4s3)cc2)cc1,"inconclusive [inhibitor, single point]"
19,COc1ccc(/C(O)=C2/C(=O)C(=O)N(CCN3CCOCC3)C2c2ccccn2)cc1 (stereo unspecified),active: 22.4 µM
20,O=C(COC(=O)C1CC2CCCC(C1)C2=O)Nc1ccccc1 (stereo unspecified),inactive
21,CC(=O)Nc1ccc(S(=O)(=O)NC2=C(N3CCN(c4ccc(F)cc4)CC3)C(=O)c3ccccc3C2=O)cc1,"inconclusive [inhibitor, partial curve]"
22,CN(CCc1ccccc1)C1CCCN(S(=O)(=O)CC(F)(F)F)C1 (stereo unspecified),"inconclusive [inhibitor, partial curve]"
23,O=S(=O)(NCc1ccco1)c1ccc2c(c1)Cc1ccccc1-2,active: 7.94 µM
24,CCOc1ccccc1/C=C/c1onc(C)c1S(=O)(=O)N1CCC(C(=O)N2CCCCC2)CC1,inactive

row,SMILES,Potency
1,CCOC(=O)N1CCC(NC(=O)CC2C(=O)NCCN2Cc2ccccc2)CC1 (stereo unspecified),"inconclusive [inhibitor, single point]"
2,O=C(COc1cccnc1[N+](=O)[O-])Nc1ncc(Cl)cc1Cl,"inconclusive [inhibitor, partial curve]"
3,O=C(Cc1ccc(Cl)cc1)Nc1cccc(S(=O)(=O)Nc2ccccc2F)c1,"inconclusive [inhibitor, single point]"
4,CN(C(=O)CSc1nc2ccc(NC(=O)c3ccccc3)cc2s1)c1ccccc1,inactive
5,Cc1cccc(NC(=O)c2cccnc2Cl)n1,"inconclusive [inhibitor, single point]"
6,O=C(CCNS(=O)(=O)c1ccccc1C(F)(F)F)NCCCSc1ccccc1,"inconclusive [inhibitor, full curve]"
7,CCc1nc(SCc2nc3ccccc3[nH]2)c2oc3ccccc3c2n1,inactive
8,NCCCCc1ccc2ccc3cccc4ccc1c2c34,inactive
9,NNc1nc2ccccc2c(=O)n1Cc1ccccc1,"inconclusive [inhibitor, partial curve]"
10,Cc1ccccc1-n1c(C)cc(/C=N/NC(=O)c2ccncc2)c1C,inactive
11,C/C(=N\N=C1\NC(=O)C(CC(=O)NCc2ccccc2)S1)C(C)C (stereo unspecified),"inconclusive [inhibitor, partial curve]"
12,O=C(Nc1ccc2ccccc2c1)c1cn(-c2ccccc2)nc1-c1cccs1,inactive
13,O=C(Cn1cc(SCc2ccc(F)cc2)c2ccccc21)N1CCCC1,inactive
14,COc1ccc(C2=CC(c3ccco3)n3ncnc3N2)cc1 (stereo unspecified),active: 10 µM
15,CCOC(=O)c1c(S(=O)(=O)NCC(=O)Nc2cccc(C)c2)c(C)n(C)c1C,inactive
16,O=C(Nc1nnc(/C=C/c2ccccc2)s1)c1ccco1,inactive
17,CNS(=O)(=O)c1cccc(C(=O)OCc2cc(C(C)=O)ccc2OC)c1,active: 2.82 µM
18,CCC(=S)/C=C1\Sc2ccc3ccccc3c2N1CCCS(=O)(=O)O,"inconclusive [inhibitor, full curve, poor fit]"
19,C=C1c2cc(CC)ccc2NC(=O)N1c1ccc(C)cc1,"inconclusive [inhibitor, partial curve, poor fit]"
20,CCOc1ccc(C(C)=O)cc1CSc1nnc(-c2cccs2)n1CC1CCCO1 (stereo unspecified),active: 20 µM
21,O=c1c2ccccc2oc2cc(-c3ccc(CN4CCOCC4)cc3)ccc12,"inconclusive [inhibitor, single point]"
22,CC[C@@]1(c2ccccc2OC)C(=O)N(C(=O)OC)N1C(=O)OC,active: 25.1 µM
23,O=C(NC(=S)Nc1ccc(S(=O)(=O)N2CCCC2)cc1)c1cccs1,active: 17.8 µM
24,CCc1ccc2[nH]c(=O)c(C(c3nnnn3CC3CCCO3)N3CCCc4ccccc43)cc2c1 (stereo unspecified),active: 35.5 µM

row,SMILES,Potency
1,C/C(=N/NC(=O)c1cc(O)c(O)c(O)c1)c1ccc([N+](=O)[O-])cc1,"inconclusive [inhibitor, partial curve]"
2,Nc1c(C(=O)O)sc2nc(-c3ccccc3)c3c(c12)CCCC3,"inconclusive [inhibitor, partial curve]"
3,C=CCn1c(=NC(=O)C2COc3ccccc3O2)sc2cccc(OC)c21 (stereo unspecified),"inconclusive [inhibitor, single point]"
4,Cc1cccc2nc(-c3ccco3)c(Nc3ccccc3)n12,inactive
5,O=C(O)C1=C[C@H](c2csc3ccccc23)C[C@H](OCCCCO)O1,"inconclusive [inhibitor, partial curve]"
6,O=C(C1=C(O)/C(=C/c2ccc(O)cc2)CCC1)C(F)(F)F,"inconclusive [inhibitor, partial curve]"
7,Cc1ccnc2c1ccc1cccnc12,"inconclusive [inhibitor, partial curve]"
8,CC(C)OCCCNC(=O)c1c2c(nc3ccccc13)C(=O)N(C1CCCCC1)C2,inactive
9,CCOC(=O)c1ccc(-c2ccc(CO)o2)cc1,active: 35.5 µM
10,O=C(N/N=C/C=C/c1ccccc1)C1CC1c1ccccc1 (stereo unspecified),inactive
11,C=CCOc1ccccc1CNc1ccc2c(c1)OCCO2,"inconclusive [inhibitor, partial curve]"
12,N#CC1=C2N=C(N)c3ccccc3N2C2=C(C(=O)CCC2)C1c1ccc(Cl)cc1 (stereo unspecified),inactive
13,Cc1cccc(C)c1OCC(N)C(C)C (stereo unspecified),"inconclusive [inhibitor, full curve, poor fit]"
14,CCn1c(=O)n(CC)c2cc(N3CCCC3)c(NC(=O)c3ccc(F)cc3)cc21,"inconclusive [inhibitor, partial curve]"
15,O=C(C1CC1)N1CCCN(C(=O)C2CC2)CC1,"inconclusive [inhibitor, full curve]"
16,COC(=O)c1ccccc1NC(=O)COC(=O)/C=C/c1ccco1,active: 25.1 µM
17,COc1ccc(C(Nc2ccccn2)c2c(NC(=O)c3ccco3)sc(C)c2C)cc1OC (stereo unspecified),"inconclusive [inhibitor, partial curve]"
18,CC1CCc2c(sc(NC(=O)Cn3nc(C(=O)O)c4ccccc4c3=O)c2C#N)C1 (stereo unspecified),active: 28.2 µM
19,CCOc1ccc(NC(=O)CN2CCN(CC(=O)Nc3ccc(F)cc3)CC2)cc1,"inconclusive [inhibitor, full curve]"
20,COC(=O)c1cc(-c2ccc(OC)c(OC)c2)n[nH]1,inactive
21,COc1ccc(CNC(=O)CN(C(=O)c2ccc(CN3CCOCC3)o2)C2CCCC2)cc1,"inconclusive [inhibitor, partial curve]"
22,O=C1N(Cc2cccc(Cl)c2)C[C@@H]2C[C@@H](c3ccsc3)N3CCC[C@@]123,"inconclusive [inhibitor, partial curve]"
23,C[C@@H]1CC=C[C@H]2[C@H]1C(=O)N(Cc1ccccc1)[C@H]2c1ccc(C(F)(F)F)cc1,"inconclusive [inhibitor, full curve]"
